# Experimental data: US20250144178A1, “PHARMACEUTICAL COMPOSITION FOR CANCER TREATMENT COMPRISING FUSION PROTEIN INCLUDING IL-12 AND ANTI-FAP ANTIBODY AND ANTICANCER AGENT” (KANAPH THERAPEUTICS INC., priority 2022, published 2025)
# T1: recombinant human FAP (Homo sapiens, UniProt Q12884)
# T1 sequence (Q12884 1-760): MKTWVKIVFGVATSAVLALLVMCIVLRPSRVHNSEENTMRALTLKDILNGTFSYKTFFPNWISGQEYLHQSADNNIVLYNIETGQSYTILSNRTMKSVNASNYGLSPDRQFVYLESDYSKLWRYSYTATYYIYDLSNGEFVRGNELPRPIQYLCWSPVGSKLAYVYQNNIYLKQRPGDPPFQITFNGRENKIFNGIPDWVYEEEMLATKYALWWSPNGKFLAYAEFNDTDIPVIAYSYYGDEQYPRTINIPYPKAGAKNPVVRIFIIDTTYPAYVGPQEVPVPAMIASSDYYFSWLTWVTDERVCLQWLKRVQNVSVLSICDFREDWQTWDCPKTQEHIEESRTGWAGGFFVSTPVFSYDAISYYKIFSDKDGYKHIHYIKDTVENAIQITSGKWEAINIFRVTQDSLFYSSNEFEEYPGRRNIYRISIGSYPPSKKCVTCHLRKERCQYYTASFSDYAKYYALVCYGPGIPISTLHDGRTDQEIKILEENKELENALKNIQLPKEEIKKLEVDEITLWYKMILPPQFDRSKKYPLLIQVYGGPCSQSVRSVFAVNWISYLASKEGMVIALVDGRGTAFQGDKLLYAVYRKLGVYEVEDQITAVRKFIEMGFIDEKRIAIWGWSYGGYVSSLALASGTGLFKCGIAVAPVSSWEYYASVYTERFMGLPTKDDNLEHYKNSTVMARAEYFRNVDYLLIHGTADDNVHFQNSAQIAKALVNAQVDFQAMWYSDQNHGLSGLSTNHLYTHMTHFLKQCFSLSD
# B1: T1.04: K&H: anti-hu FAP (DVD-Ig)/hu IL-12, hu IgG1 DANG (2 + 1) (seq3, seq6, seq7) (antibody)
# heavy: QVQLVQSGAEVKKPGASVKVSCKTSRYTFTEYTIHWVRQAPGQRLEWIGGINPNNGIPNYNQKFKGRVTITVDTSASTAYMELSSLRSEDTAVYYCARRRIAYGYDEGHAMDYWGQGTLVTVSSGGGGSGGGGSGGGGSQVQLVQSGAEVKKPGASVKVSCKTSRYTFTEYTIHWVRQAPGQRLEWIGGINPNNGIPNYNQKFKGRVTITVDTSASTAYMELSSLRSEDTAVYYCARRRIAYGYDEGHAMDYWGQGTLVTVSSASTKGPSVFPLAPSSKSTSGGTAALGCLVKDYFPEPVTVSWNSGALTSGVHTFPAVLQSSGLYSLSSVVTVPSSSLGTQTYICNVNHKPSNTKVDKKVEPKSCDKTHTCPPCPAPELLGGPSVFLFPPKPKDTLMISRTPEVTCVVVAVSHEDPEVKFNWYVDGVEVHNAKTKPREEQYGSTYRVVSVLTVLHQDWLNGKEYKCKVSNKALPAPIEKTISKAKGQPREPQVYTLPPSRDELTKNQVSLWCLVKGFYPSDIAVEWESNGQPENNYKTTPPVLDSDGSFFLYSKLTVDKSRWQQGNVFSCSVMHEALHNHYTQKSLSLSPGK
# light: DIVMTQSPDSLAVSLGERATINCKSSQSLLYSRNQKNYLAWYQQKPGQPPKLLIFWASTRESGVPDRFSGSGFGTDFTLTISSLQAEDVAVYYCQQYFSYPLTFGQGTKVEIKGGGGSGGGGSGGGGSDIVMTQSPDSLAVSLGERATINCKSSQSLLYSRNQKNYLAWYQQKPGQPPKLLIFWASTRESGVPDRFSGSGFGTDFTLTISSLQAEDVAVYYCQQYFSYPLTFGQGTKVEIKRTVAAPSVFIFPPSDEQLKSGTASVVCLLNNFYPREAKVQWKVDNALQSGNSQESVTEQDSKDSTYSLSSTLTLSKADYEKHKVYACEVTHQGLSSPVTKSFNRGEC
# chain: IWELKKDVYVVELDWYPDAPGEMVVLTCDTPEEDGITWTLDQSSEVLGSGKTLTIQVKEFGDAGQYTCHKGGEVLSHSLLLLHKKEDGIWSTDILKDQKEPKNKTFLRCEAKNYSGRFTCWWLTTISTDLTFSVKSSRGSSDPQGVTCGAATLSAERVRGDNKEYEYSVECQEDSACPAAEESLPIEVMVDAVHKLKYENYTSSFFIRDIIKPDPPKNLQLKPLKNSRQVEVSWEYPDTWSTPHSYFSLTFCVQVQGKSKREKKDRVFTDKTSATVICRKNASISVRAQDRYYSSSWSEWASVPCSGGGGSGGGGSGGGGSRNLPVATPDPGMFPCLHHSQNLLRAVSNMLQKARQTLEFYPCTSEEIDHEDITKDKTSTVEACLPLELTKNESCLNSRETSFITNGSCLASRKTSFMMALCLSSIYEDLKMYQVEFKTMNAKLLMDPKRQIFLDQNMLAVIDELMQALNFNSETVPQKSSLEEPDFYKTKIKLCILLHAFRIRAVTIDRVMSYLNASGGGGSGGGGS[skipping human IgG1 Fc with changes]
# B2: T1.05: K&H: anti-hu FAP (DVD-Ig)/hu IL-12 mut2, hu IgG1 DANG (2 + 1) (seq5, seq6, seq7) (antibody)
# heavy: QVQLVQSGAEVKKPGASVKVSCKTSRYTFTEYTIHWVRQAPGQRLEWIGGINPNNGIPNYNQKFKGRVTITVDTSASTAYMELSSLRSEDTAVYYCARRRIAYGYDEGHAMDYWGQGTLVTVSSGGGGSGGGGSGGGGSQVQLVQSGAEVKKPGASVKVSCKTSRYTFTEYTIHWVRQAPGQRLEWIGGINPNNGIPNYNQKFKGRVTITVDTSASTAYMELSSLRSEDTAVYYCARRRIAYGYDEGHAMDYWGQGTLVTVSSASTKGPSVFPLAPSSKSTSGGTAALGCLVKDYFPEPVTVSWNSGALTSGVHTFPAVLQSSGLYSLSSVVTVPSSSLGTQTYICNVNHKPSNTKVDKKVEPKSCDKTHTCPPCPAPELLGGPSVFLFPPKPKDTLMISRTPEVTCVVVAVSHEDPEVKFNWYVDGVEVHNAKTKPREEQYGSTYRVVSVLTVLHQDWLNGKEYKCKVSNKALPAPIEKTISKAKGQPREPQVYTLPPSRDELTKNQVSLWCLVKGFYPSDIAVEWESNGQPENNYKTTPPVLDSDGSFFLYSKLTVDKSRWQQGNVFSCSVMHEALHNHYTQKSLSLSPGK
# light: DIVMTQSPDSLAVSLGERATINCKSSQSLLYSRNQKNYLAWYQQKPGQPPKLLIFWASTRESGVPDRFSGSGFGTDFTLTISSLQAEDVAVYYCQQYFSYPLTFGQGTKVEIKGGGGSGGGGSGGGGSDIVMTQSPDSLAVSLGERATINCKSSQSLLYSRNQKNYLAWYQQKPGQPPKLLIFWASTRESGVPDRFSGSGFGTDFTLTISSLQAEDVAVYYCQQYFSYPLTFGQGTKVEIKRTVAAPSVFIFPPSDEQLKSGTASVVCLLNNFYPREAKVQWKVDNALQSGNSQESVTEQDSKDSTYSLSSTLTLSKADYEKHKVYACEVTHQGLSSPVTKSFNRGEC
# chain: IWELKKDVYVVELDWYPDAPGEMVVLTCDTPEEDGITWTLDQSSEVLGSGKTLTIQVKEFGDAGQYTCHKGGEVLSHSLLLLHKKEDGIWSTDILKDQKEPKNKTFLRCEAKNYSGRFTCWWLTTISTDLTFSVKSSRGSSDPQGVTCGAATLSAERVRGDNKEYEYSVECQEDSACPAAEESLPIEVMVDAVHKLKYENYTSSFFIRDIIKPDPPKNLQLKPLKNSRQVEVSWEYPDTWSTPHSYFSLTFCVQVQGASAREAADRVFTDKTSATVICRKNASISVRAQDRYYSSSWSEWASVPCSGGGGSGGGGSGGGGSRNLPVATPDPGMFPCLHHSQNLLRAVSNMLQKARQTLEFYPCTSEEIDHEDITKDKTSTVEACLPLELTKNESCLNSRETSFITNGSCLASRKTSFMMALCLSSIYEDLKMYQVEFKTMNAKLLMDPKRQIFLDQNMLAVIDELMQALNFNSETVPQKSSLEEPDFYKTKIKLCILLHAFRIRAVTIDRVMSYLNASGGGGSGGGGS[skipping human IgG1 Fc with changes]
# Target: T1, recombinant human FAP
# Experiment: Surface plasmon resonance binding to recombinant human FAP
# Conditions: SPR, 1:1 binding model, protein captured by anti-human IgG (Fc), analyte human FAP
# Procedure: Specifically, the surface of the CM5 chip was activated with a 1:1 mixture of […] NHS (N-hydroxysuccinimide) and […] EDC (1-Ethyl-3-(3-dimethylaminopropyl) carbodiimide), and 25 μg/ml of anti-human IgG (Fc) antibody was immobilized for 400 seconds at a rate of 10 μl/min. The remaining active ester groups were blocked with 1 M ethanolamine. T1.01, T1.02 and T1.03 were diluted to 2 μg/ml and reacted on the CM5 chip immobilized with the anti-human IgG (Fc) antibody. The recombinant human FAP was diluted to 200 nM in 1×HBS-EP+buffer solution and diluted by serial dilution. The diluted recombinant human FAP was reacted at a rate of 30 μl/min. The association and dissociation times were 180 seconds and 400 seconds, respectively. After the dissociation, stabilization was performed for 60 seconds, and then a regeneration was performed for 30 seconds with a 10 mM glycine pH 1.5 solution at a rate of 30 μl/min.
# Bindings of T1.04, T1.05, T1.06, T1.07, T1.08, T1.09, T1.10 and T1.11 to recombinant human […] were identified by surface plasmon resonance (SPR). The surface of the CM5 chip was activated with a 1:1 mixture of […] (N-hydroxysuccinimide) and […] (1-Ethyl-3-(3-dimethylaminopropyl) carbodiimide), and 25 μg/ml of anti-human IgG (Fc) antibody was immobilized for 400 seconds at a rate of 10 μl/min. The remaining active ester groups were blocked with 1 M ethanolamine.
# Specifically, human proteins T1.04, T1.05, T1.06, T1.07, T1.08, T1.09, T1.10 and T1.11 were diluted to 1 μg/ml, 1 μg/ml, 1 μg/ml, 1 μg/ml, 0.5 μg/ml, 0.5 μg/ml, 0.5 μg/ml, and 1 μg/ml, respectively, and reacted on a CM5 chip immobilized with an anti-human IgG (Fc) antibody. The recombinant human FAP was diluted to 25 nM or 50 nM in 1×HBS-EP+buffer solution and diluted by serial dilution. The diluted recombinant human FAP was reacted at a rate of 30 μl/min. The association and dissociation times were 180 seconds and 400 seconds, respectively. After the dissociation, stabilization was performed for 60 seconds, and then a regeneration was performed for 30 seconds with a 10 mM glycine pH 1.5 solution at a rate of 30 μl/min.
Molecule,ka [M⁻¹ s⁻¹],kd [s⁻¹]
B1,583000,1.5e-05
B2,625000,5.83e-05
